Assay results reported in paper PMC8948191.
No constants are given. Whether binding was seen depends on the method and setting.

Target: Purified recombinant Drp1 (isoform 1) (human), O00429
Experiment: pull-down; cell-free system, recombinant GST- or His-fusions purified from E. coli; two proteins only (CLUH with MiD49 or Mff without Drp1; CLUH with Drp1 as bait); both purified
Settings: remark: other sources report otherwise

binding: no binding
B1: Purified recombinant CLUH, O75153 1-1309 (protein)
chain: MLLNGDCPESLKKEAAAAEPPRENGLDEAGPGDETTGQEVIVIQDTGFSVKILAPGIEPFSLQVSPQEMVQEIHQVLMDREDTCHRTCFSLHLDGNVLDHFSELRSVEGLQEGSVLRVVEEPYTVREARIHVRHVRDLLKSLDPSDAFNGVDCNSLSFLSVFTDGDLGDSGKRKKGLEMDPIDCTPPEYILPGSRERPLCPLQPQNRDWKPLQCLKVLTMSGWNPPPGNRKMHGDLMYLFVITAEDRQVSITASTRGFYLNQSTAYHFNPKPASPRFLSHSLVELLNQISPTFKKNFAVLQKKRVQRHPFERIATPFQVYSWTAPQAEHAMDCVRAEDAYTSRLGYEEHIPGQTRDWNEELQTTRELPRKNLPERLLRERAIFKVHSDFTAAATRGAMAVIDGNVMAINPSEETKMQMFIWNNIFFSLGFDVRDHYKDFGGDVAAYVAPTNDLNGVRTYNAVDVEGLYTLGTVVVDYRGYRVTAQSIIPGILERDQEQSVIYGSIDFGKTVVSHPRYLELLERTSRPLKILRHQVLNDRDEEVELCSSVECKGIIGNDGRHYILDLLRTFPPDLNFLPVPGEELPEECARAGFPRAHRHKLCCLRQELVDAFVEHRYLLFMKLAALQLMQQNASQLETPSSLENGGPSSLESKSEDPPGQEAGSEEEGSSASGLAKVKELAETIAADDGTDPRSREVIRNACKAVGSISSTAFDIRFNPDIFSPGVRFPESCQDEVRDQKQLLKDAAAFLLSCQIPGLVKDCMEHAVLPVDGATLAEVMRQRGINMRYLGKVLELVLRSPARHQLDHVFKIGIGELITRSAKHIFKTYLQGVELSGLSAAISHFLNCFLSSYPNPVAHLPADELVSKKRNKRRKNRPPGAADNTAWAVMTPQELWKNICQEAKNYFDFDLECETVDQAVETYGLQKITLLREISLKTGIQVLLKEYSFDSRHKPAFTEEDVLNIFPVVKHVNPKASDAFHFFQSGQAKVQQGFLKEGCELINEALNLFNNVYGAMHVETCACLRLLARLHYIMGDYAEALSNQQKAVLMSERVMGTEHPNTIQEYMHLALYCFASSQLSTALSLLYRARYLMLLVFGEDHPEMALLDNNIGLVLHGVMEYDLSLRFLENALAVSTKYHGPKALKVALSHHLVARVYESKAEFRSALQHEKEGYTIYKTQLGEDHEKTKESSEYLKCLTQQAVALQRTMNEIYRNGSSANIPPLKFTAPSMASVLEQLNVINGILFIPLSQKDLENLKAEVARRHQLQEASRNRDRAEEPMATEPAPAGAPGDLGSQPPAAKDPSPSVQG
